Test results from PubChem BioAssay AID488969 (Vanderbilt High Throughput Screening Facility, 2010).
Over roughly 110,000 compounds, “z-score” has its median near -0.1; the highest 2% begin near 2. This is one part of the list. Residues, ends and D or L forms follow the SMILES beside them. *: point of attachment. Boc = CC(C)(C)OC(=O)*; OBn = c1ccc(CO*)cc1

The molecules below were run against Metabotropic glutamate receptor 8 (Rattus norvegicus) (UniProt P70579) (assay: mGluR8 Gi/Go-coupled signaling modulation – cell-based, rat, thallium flux, HTS, primary screen (AID 488969)). Details: HEK293 rat mGluR8, GIRK (G protein-gated inwardly rectifying potassium channel) thallium flux, FluoZin2; at 10 µM; stronger effect = higher value; submaximal glutamate (EC20) added with thallium.
UniProt P70579, sequence (P70579 whole entry, looked up): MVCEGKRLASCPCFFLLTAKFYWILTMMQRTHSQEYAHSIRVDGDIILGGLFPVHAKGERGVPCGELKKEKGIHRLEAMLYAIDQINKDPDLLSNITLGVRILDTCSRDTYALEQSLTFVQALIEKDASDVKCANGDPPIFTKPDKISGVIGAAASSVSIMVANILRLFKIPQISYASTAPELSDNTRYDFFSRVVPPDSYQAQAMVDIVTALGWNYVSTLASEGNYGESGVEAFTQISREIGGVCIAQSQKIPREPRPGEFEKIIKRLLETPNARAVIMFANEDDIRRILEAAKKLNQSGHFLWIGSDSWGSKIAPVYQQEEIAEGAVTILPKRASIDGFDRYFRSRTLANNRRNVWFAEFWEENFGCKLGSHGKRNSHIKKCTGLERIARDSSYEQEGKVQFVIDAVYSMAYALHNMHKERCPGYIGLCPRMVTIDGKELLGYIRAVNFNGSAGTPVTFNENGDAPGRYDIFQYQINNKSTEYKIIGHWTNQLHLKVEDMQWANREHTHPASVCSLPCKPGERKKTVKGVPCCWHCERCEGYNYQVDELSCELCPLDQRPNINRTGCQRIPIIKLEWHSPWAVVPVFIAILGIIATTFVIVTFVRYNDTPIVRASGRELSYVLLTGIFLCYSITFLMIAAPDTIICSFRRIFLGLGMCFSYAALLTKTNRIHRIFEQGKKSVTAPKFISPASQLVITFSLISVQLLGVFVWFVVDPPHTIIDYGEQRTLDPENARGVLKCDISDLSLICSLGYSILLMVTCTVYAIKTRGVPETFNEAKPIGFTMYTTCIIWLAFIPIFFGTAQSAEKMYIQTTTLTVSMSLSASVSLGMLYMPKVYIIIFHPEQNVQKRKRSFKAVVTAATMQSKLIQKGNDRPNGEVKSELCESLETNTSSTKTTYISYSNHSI

Row | Structure (SMILES) | z-score
1 | O=C1CCNc2cc3ccccc3cc21 | 0.58
2 | Cc1ccccc1CNC(=O)c1ccccc1C | 0.221
3 | O=C1CC(=O)C(n2cncn2)C(c2c(F)cccc2Cl)C1 (configuration not stated) | -0.214
4 | COc1ccccc1NC(=O)c1ccc(NS(=O)(=O)c2c(C)noc2C)cc1 | 0.641
5 | CCOC(=O)NC1(C(F)(F)F)N=C(c2ccccc2)NC1=O (configuration not stated) | 0.265
6 | Cc1ccccc1-c1nc2ccccc2c(=O)n1C1CCS(=O)(=O)C1 (configuration not stated) | -0.314
7 | CCC(C)(C)C1CCC(=NNC(=O)c2ccoc2C)CC1 (configuration not stated) | -0.259
8 | C=CCn1c(Sc2nc(C)cs2)nc2c1c(=O)[nH]c(=O)n2C | -0.168
9 | COc1ccc(-c2nc3ccccc3n2Cc2ccccc2)cc1 | -0.359
10 | C=CCn1c(-c2ccc(C)cc2)nc2ccccc21 | -1.52
11 | CCC1=NN(C(=O)c2ccc(C)cc2)C(O)(c2ccc(Br)cc2)C1 (configuration not stated) | 0.175
12 | O=P(O)(c1ccccc1)c1ccccc1O | 0.401
13 | Cc1ccccc1NS(=O)(=O)c1ccc(C)c(C(N)=O)c1 | 0.0473
14 | O=C(NCCN1CCOCC1)c1ccc(-c2ccccc2)cc1 | 0.258
15 | CCOC(=O)CN(C(=O)CSc1nnc(-c2cccc(OC)c2)o1)c1ccc(F)cc1 | 0.478
16 | OC(COC(c1ccc(F)cc1)c1ccc(F)cc1)CN1CCc2ccccc2C1 (configuration not stated) | 0.611
17 | O=C(c1ccc2c(c1)OCO2)N1CCCC1 | -0.125
18 | COc1ccc(NC(=O)/C(C#N)=C/c2ccc3c(c2)n(C)c(=O)n3C)cc1 | 0.148
19 | CCN(Cc1ccccc1)C(c1ccc(C)cc1)c1nnnn1C(C)(C)CC (configuration not stated) | -0.13

Row | Structure (SMILES) | z-score
20 | Cc1ccc(S(=O)(=O)N2CCCN(S(=O)(=O)C3CCS(=O)(=O)C3)CC2)cc1 (configuration not stated) | 0.0702
21 | COC(=O)c1cc(F)c(-n2cncn2)c(F)c1 | -0.0938
22 | O=C(Nc1nc(-c2ccc(Oc3ccccc3)cc2)cs1)C1=COCCO1 | 0.272
23 | Cc1ccc(-c2noc(C3CCCN(C(=O)c4ccccc4)C3)n2)o1 (configuration not stated) | -0.175
24 | CCc1ccc(NC(=O)c2ccc(OC)c([N+](=O)[O-])c2)cc1 | -0.449
25 | Cc1ccc(Cn2ncc3c(NCCCN4CCOCC4)ncnc32)cc1 | -0.227
26 | CCNC(=O)CC1C(=O)N(c2ccc(F)cc2)C(=O)N1CCC(C)C (configuration not stated) | 0.39
27 | COc1ccc2oc(=Nc3ccccc3)c(-c3nc4ccccc4[nH]3)cc2c1 | -0.114
28 | O=C(Nc1ccc(-c2nc3c(ccc4ccccc43)o2)cc1)c1ccco1 | -0.502
29 | Cc1nc2ccc(NC(=O)N3CCC(c4ccccc4)C3)cc2nc1C (configuration not stated) | -1.73
30 | Cc1nc(-c2ccccc2)nc2[nH]ccc(=O)c12 | -1.14
31 | O=C(Nc1cccn2ncnc12)c1ccc(Cl)cc1 | -0.254
32 | CS(=O)(=O)Nc1ccccc1C(=O)c1ccccc1 | 0.313
33 | Cc1ccc(NC(=O)c2ccc(Cn3cc(Br)cn3)o2)cc1 | -1.07
34 | CCOc1ccc(CCNC(=O)C2CCN(S(=O)(=O)CC)CC2)cc1OCC | 0.236
35 | O=C(Nc1nnc(C2=COCCO2)o1)c1ccc(Cl)cc1 | 0.709
36 | NC(=O)c1nsc(C(=O)N(CC(=O)NCc2ccc(F)cc2)Cc2ccco2)c1N | -0.42
37 | C1CCC(C23CC4CC(CC(C4)C2)C3)NC1 (configuration not stated) | 0.138
38 | N#CCCn1c(SCC(=O)NCC2CCCO2)nc2ccccc21 (configuration not stated) | -0.368

Row | Structure (SMILES) | z-score
39 | CCCCOc1ccc(CNC(=O)NS(=O)(=O)c2ccc(OCC(C)C)cc2)cc1 | -0.522
40 | CCc1nc(SCC(=O)N2CC(=O)Nc3ccccc32)c2c(C)c(C)sc2n1 | 1.93
41 | CCOC(=O)c1ccccc1NC(=O)c1cccc2c1C(=O)N(C1CCN(C(=O)OCC)CC1)C2 | -2.77
42 | CCn1nnnc1SCC(=O)Nc1ccc2c(c1)OCO2 | -0.744
43 | COc1ccc(NC2=NCCC2)cc1 | 0.235
44 | CCCCCOc1ccc(/C=c2\sc3nc(=O)c(-c4ccccc4)nn3c2=O)cc1OC | 0.106
45 | Clc1cccc2sc(N3CCOCC3)nc12 | 0.0232
46 | O=C(Cc1cccs1)Nc1nnc(Cc2ccccc2)s1 | -0.0843
47 | N#C/C(=C/c1ccc(Sc2nc3ccccc3[nH]2)o1)c1ccccc1F | -1.09
48 | Cn1nc(C(=O)NCc2ccccn2)c2ccccc2c1=O | -0.406
49 | CSc1ccc(CN2CCC(O)CC2)cc1 | 0.279
50 | COC(=O)Nc1ccc(S(=O)(=O)N(C)C)cc1 | -0.233
51 | CC(=O)NS(=O)(=O)c1cccnc1Nc1cccc(Cl)c1 | -0.444
52 | Cc1ccc(-n2nnnc2-c2ccco2)cc1 | -0.111
53 | O=C(/C=C/c1ccco1)Nc1ccc(-c2nc3ccccc3[nH]2)cc1 | -0.0801
54 | O=C(CN(C(=O)CCNC(=O)c1ccco1)c1ccccc1)NC1CCCC1 | -0.108
55 | c1ccc(CSc2snnc2-c2ccccc2)cc1 | -0.267
56 | CCC(C)NC(=O)Cn1c(=O)n(CCCCC(=O)NCc2ccco2)c(=O)c2ccccc21 (configuration not stated) | -0.434
57 | CC(C)CC(NC(=O)C(NC(=O)OC(C)(C)C)C(C)C)C(=O)NC(CCC(=O)OCc1ccccc1)C(N)=O (stereo not drawn) (Boc-Val-Leu-Glu(OBn)-NH2; configuration not given here) | -0.102
